The values below come from the supplement of paper PMC10600219.

Molecules are shown by their SMILES. Structures can show the parent of a compound that is named as a salt. Over roughly 2,800 compounds, “cell viability relative to vehicle” has its median near 1.1; the lowest 2% begin near 0.19. The list shows a part of the results.

This experiment concerns NCI-H2228 parental. The experiment in a line: cell viability relative to vehicle (fraction of vehicle); NCI-H2228 is an ALK-positive lung cancer line and DTP means drug-tolerant persister; higher = less growth inhibition. As to conditions: 100 nM; treatment time 6 days. The method, boiled down: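 The 3114-agent TargetMol anti-cancer compound library was tested at 100 nM for 6 days on parental NCI-H2228 cells and on persister cells derived with 1000 nM of a targeted drug for 13 days. ATP readout by the CellTiter-Glo 3D Cell Viability Assay gave cell viability relative to DMSO vehicle-treated cells.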
As to `CNC(=O)CNc1cnc2ccc(-c3ccc(OC)c(OC)c3)cc2n1`, the cell viability is 1.12.

As for `CCNC(=O)c1[nH]nc(-c2cc(Cl)c(O)cc2O)c1-c1ccc(OC)cc1`, the cell viability worked out at 1.15.

Regarding `C[C@]12CC[C@@H]3c4ccc(O)cc4CC[C@H]3[C@@H]1CC[C@@H]2O` [Estradiol], the cell viability was determined as 1.09.

As to `CCCN(CCC)S(=O)(=O)c1ccc(C(=O)O)cc1` [Probenecid], the cell viability was determined as 1.15.

As to `COc1ccc(C(=C2C(=O)Nc3ccccc32)c2ccc(OC)cc2)cc1`, the cell viability was 1.05.

For the compound `CC(C)(C)n1nc(Cc2cccc3ccccc23)c2c(N)ncnc21`, the cell viability stood at 0.946.

With `CCN(CC)C(=O)c1cccnc1` [Nikethamide], the cell viability was found to be 1.1.

On to `O=c1[nH]c(=S)[nH]c(-c2ccccc2)c1Cc1c(O)ccc2ccccc12` [Cambinol], for which the cell viability is 0.896.

Regarding `CCN(CC)C(=O)c1cccc(C)c1` [N,N-Diethyl-m-toluamide], the cell viability stood at 1.05.

Regarding `O=C(NO)c1cnc(NC2(c3ccccc3)CC2)nc1`, the cell viability came to 1.12.

Regarding `CC(=O)[C@H]1CC[C@H]2[C@@H]3CCC4=CC(=O)CC[C@]4(C)[C@H]3CC[C@]12C` [Progesterone], the cell viability was 1.16.

As for `Cn1cc(CNCC2CCN(c3ncc(C(=O)NO)cn3)CC2)c2ccccc21` [Quisinostat], the cell viability came to 0.159.

With `CN(C)CC/C=C1/c2ccccc2Sc2ccc(Cl)cc21` [Chlorprothixene], the cell viability is 0.997.

Turning to `CN1CCN(C(=O)C2C(C(=O)O)[C@H]3CC[C@@H]2O3)CC1` (stereo not given in full), the cell viability came out at 0.955.

On to `CN(C)CCOC(c1ccccc1)c1ccccc1` [Diphenhydramine hydrochloride], for which the cell viability amounted to 0.995.

Consider `COc1ccc2c(c1)c(CC(=O)N1CCOCC1)c(C)n2C(=O)c1ccc(Cl)cc1`, for which the cell viability amounted to 0.885.

For the compound `COc1cccc(C(=O)COc2ccc(CC3SC(=O)NC3=O)cc2)c1` (stereo not given), the cell viability was 0.994.

As to `O=C1Cc2c([nH]c3ccc(Br)cc23)-c2ccccc2N1` [KenPaullone], the cell viability came to 1.12.

Turning to `CNCCCC12CCC(c3ccccc31)c1ccccc12` [Maprotiline hydrochloride], the cell viability turned out to be 1.03.

Consider `NCC1CCN(c2nccc(-c3ccc4ccccc4c3)n2)CC1`, for which the cell viability is 1.

In the case of `CO/N=C(\C(=O)N[C@@H]1C(=O)N2C(C(=O)[O-])=C(C[N+]3(C)CCCC3)CS[C@H]12)c1csc(N)n1` [Cefepime Dihydrochloride Monohydrate], the cell viability was 1.19.

For `Cc1cc2c(C(N)=O)cccc2n1-c1nc2c(c(NCc3ccccc3)n1)COCC2`, the cell viability worked out at 1.08.

Regarding `Cc1coc2c1C(=O)C(=O)c1c-2ccc2c1CCCC2(C)C` [Tanshinone IIA], the cell viability was found to be 0.922.

For the compound `O=C(NCc1cccc(O)c1)c1cc2cc(F)ccc2[nH]1`, the cell viability stood at 1.01.

As to `O=C(O[C@@H]1Cc2c(O)cc(O)cc2O[C@@H]1c1ccc(O)c(O)c1)c1cc(O)c(O)c(O)c1` [(-)-Epicatechin gallate], the cell viability was determined as 1.09.
